In ChEMBL document CHEMBL4888484, “Replenishing the malaria drug discovery pipeline: Screening and hit evaluation of the MMV Hit Generation Library 1 (HGL1) against asexual blood stage Plasmodium falciparum ,using a nano luciferase reporter read-out” (2022):
The whole screen tested about 150,000 compounds, of which about 540 (0.36%) showed an effect of 50% or more. This is one part of the list.

Test system: Plasmodium falciparum
Assay: Primary screen in NF54 nanoGlo assay, in single point, at 2uM, 72h; a lower Z score goes with more inhibition
Format: functional, Erythrocyte
Conditions: timepoint 72 hour

SMILES | % Inhibition | Z score
CCN1CCN(Cc2cccc3cccnc23)C(C)(C)C1=O | -9% | 1.65
Cc1ccc(C2CCN(CC(=O)Nc3cccnn3)CC2)cn1 | 3% | -0.48
CCc1nc(CN(C)Cc2cc(C)on2)cs1 | -12% | 1.57
CCc1ccccc1NC(=O)CN1CC[C@H](C2CC2)C1 | -11% | 2.18
COc1ccc2c(c1)CN([C@H]1CC(=O)N(CC(F)(F)F)C1=O)CC2 | -1% | 0.12
O=C(N[C@H]1CCOC[C@@H]1O)c1cc(Cl)c[nH]c1=O | -11% | 1.23
CCn1cc([C@H](CC(=O)NCCC(C)C)c2cccc(F)c2)c2ccccc21 | 8% | -1.07
FC(F)Oc1cccc(CN2CC[C@H]3[C@H](C2)OCc2cnnn23)c1 | -7% | 1.03
COc1cc(C(=O)NCC(F)(C(F)(F)F)C(F)(F)F)sn1 | 13% | -1.53
Cc1cccnc1CC(=O)N1CCNC(=O)C12CCCC2 | -14% | 1.29
CN(C)c1cc(OCC2(O)CC(N(C)C(=O)CCC3CCC3)C2)ncc1-c1ccccc1 (configuration not stated) | -14% | 2.65
Cc1ccccc1Oc1nc(-c2ccccc2)cc(C)c1S(=O)(=O)c1ccc(Cl)cc1 | 8% | -1.19
CN1CCC(CCO)(NC(=O)c2ccnc3cc(Cl)ccc23)CC1 | -13% | 2.43
O=S(=O)(c1ccccc1)N(c1cccnc1)S(=O)(=O)c1ccccc1 | 32% | -3.6
Cc1nn(-c2ccccc2)c2nc(C(=O)N[C@H]3CCCOCC3)ccc12 | -13% | 1.32
Cc1cccc2c1CCCN2C[C@@H]1CCC(=O)N1 | 3% | -0.3
Cc1cccc(CC(=O)N2CC[C@H](n3nccn3)C2)c1 | -4% | 0.52
CC(C)(NS(C)(=O)=O)C(=O)NC1CC(OCc2ccccc2)C1(C)C (configuration not stated) | -7% | 1.32
O=C(O)[C@H]1CN(Cc2cc(F)ccc2F)CC12CCC2 | -8% | 1.12

SMILES | % Inhibition | Z score
Cc1c(C(C)NC(=O)N2CCCC2c2cccs2)cnn1C (configuration not stated) | -2% | 0.28
COc1ccc([C@@H]2CCCN2C(=O)CCc2cscn2)cc1OC | -4% | 0.72
C[C@@H](C(=O)Nc1cccc(O)c1)c1ccc(Cl)s1 | -5% | 0.42
C[C@H]1CN(c2ncncc2Br)CCC1=O | 8% | -1.48
O=C(CCc1ccc(Cl)c(C(F)(F)F)c1)N1CC[C@H](Oc2cccc3cccnc23)C1 | -12% | 2.2
Cc1[nH]nc(CCC(=O)NCCCn2ccnc2)c1C | -16% | 1.59
Cn1c(OCC2CCOCC2)nc2ccccc21 | -7% | 1.46
O=S(=O)(CC1(F)CC1)Nc1cccc(Oc2ccccc2)n1 | -7% | 1.31
CCN(CCN1CCCCCC1)Cc1nccn1C | -3% | 0.42
Fc1cccc([C@@H]2C=C(c3cccnc3)Nc3nc(C(F)(F)F)nn32)c1 | -5% | 0.98
COC1CCN([C@H]2CCC[C@H]2NC(=O)Nc2ccc(-c3nccc(C)n3)cc2)C1 (some centres not stated) | -15% | 1.99
Cc1csc(CNC(=O)Cn2nnc3ccccc32)n1 | -2% | 0.32
Cc1cc(F)cc(C(=O)OCCC(=O)N(C)C)c1 | 29% | -3.29
CCn1ccnc1CNC(=O)c1cc(COc2ccc(F)c(F)c2)on1 | -4% | 0.49
Cc1c(S(=O)(=O)NC(=O)CC2=CCCCC2)cnn1C | -13% | 2.47
O=C(CCCn1cnnn1)N1CCC2(CC1)c1ccccc1C[C@@H]2O | 4% | -0.52
c1nnc(C(NCC2CC3CCC2C3)C2CCCCC2)[nH]1 (configuration not stated) | -5% | 0.77
CC(C)Cn1ncnc1COC(=O)c1cccnc1 | 37% | -0.9
COc1cccc(C(=O)N2CCC[C@@]3(C2)Nc2cccnc2N=C3NCc2ccccc2)c1 | 36% | -4.04

SMILES | % Inhibition | Z score
CC(C)N1CCn2c(nc3cc(C(=O)NCc4ccc(F)c(Cl)c4)ccc32)C1=O | 7% | -0.96
CCC[C@@]1(C)CCCN(C(=O)c2ccnc(C(=O)OC)c2)C1 | -11% | 0.96
CC(C)c1nnc(N2CCn3nc([C@H](O)c4nccn4C)cc3C2)s1 | -17% | 1.82
CN(C)c1cc(C(=O)N(CC(F)F)C2CC2)ccn1 | -8% | 0.77
Cc1cc(C)nc(NC(=O)N(C)Cc2nccs2)c1 | 7% | -1.07
O=C(CCc1cccnc1)NC(Cc1ccncc1)[C@H]1C[C@H](O)C1 (some centres not stated) | -9% | 1.65
CC(C)(C)S(=O)(=O)[C@H]1CCN(C(=O)CCc2ccc(Cl)c(Cl)c2)C1 | -10% | 1.7
CC[C@H](NC1CCN(Cc2ccco2)CC1)c1ccnn1C | 14% | -1.75
COCCC1CCN(C(=O)c2ncc[nH]2)CC1 | -7% | 0.86
C(=C\c1ccccc1)/CNCCN1CCOCC1 | 8% | -1.11
C[C@H](Nc1ccc(Br)cc1)C(=O)NC(=O)NC1CCCCC1 | 4% | -0.77
Cc1cc2[nH]c(C(=O)NCc3ccc(N4CCOCC4)cc3)c(CN3CCCC3)c2s1 | -10% | 0.93
COc1ccc(N2CCN(C(=O)C[C@H](C)S(=O)(=O)c3ccc4c(c3)NC(=O)CO4)CC2)cc1 | 6% | -0.73
CCOC(=O)CNC(=O)C1CCCCC1 | -6% | 0.96
C[C@@H](Cn1cnc2ccccc2c1=O)NCCCn1cc(Cl)cn1 | -9% | 1.39
Cc1c(-c2ccc(O)cc2)nc2nc(-c3ccccc3)c(-c3ccccc3)nn12 | -8% | 1.01
CC(C)(C)OC(=O)NCC1CCN(c2nnnn2CC2CC2)CC1 | 1% | -0.11
COCCCn1c(C)cnc1CC1CCN(C(=O)c2ccoc2)CC1 | -13% | 1.89
